# Reference: paper PMC4336329 (PLoS ONE, 2015)
# About 2,200 (0.71%) of roughly 310,000 compounds showed an effect of 50% or more. The effect is printed as a negative number. The list shows a part of the results.
# Molecular target: human ether-à-go-go-related gene (hERG) potassium channel (human, UniProt Q12809)
# Assay: primary screen, population patch clamp on CHO cells stably expressing hERG
# human ether-à-go-go-related gene (hERG) potassium channel, sequence (Q12809 whole entry, looked up): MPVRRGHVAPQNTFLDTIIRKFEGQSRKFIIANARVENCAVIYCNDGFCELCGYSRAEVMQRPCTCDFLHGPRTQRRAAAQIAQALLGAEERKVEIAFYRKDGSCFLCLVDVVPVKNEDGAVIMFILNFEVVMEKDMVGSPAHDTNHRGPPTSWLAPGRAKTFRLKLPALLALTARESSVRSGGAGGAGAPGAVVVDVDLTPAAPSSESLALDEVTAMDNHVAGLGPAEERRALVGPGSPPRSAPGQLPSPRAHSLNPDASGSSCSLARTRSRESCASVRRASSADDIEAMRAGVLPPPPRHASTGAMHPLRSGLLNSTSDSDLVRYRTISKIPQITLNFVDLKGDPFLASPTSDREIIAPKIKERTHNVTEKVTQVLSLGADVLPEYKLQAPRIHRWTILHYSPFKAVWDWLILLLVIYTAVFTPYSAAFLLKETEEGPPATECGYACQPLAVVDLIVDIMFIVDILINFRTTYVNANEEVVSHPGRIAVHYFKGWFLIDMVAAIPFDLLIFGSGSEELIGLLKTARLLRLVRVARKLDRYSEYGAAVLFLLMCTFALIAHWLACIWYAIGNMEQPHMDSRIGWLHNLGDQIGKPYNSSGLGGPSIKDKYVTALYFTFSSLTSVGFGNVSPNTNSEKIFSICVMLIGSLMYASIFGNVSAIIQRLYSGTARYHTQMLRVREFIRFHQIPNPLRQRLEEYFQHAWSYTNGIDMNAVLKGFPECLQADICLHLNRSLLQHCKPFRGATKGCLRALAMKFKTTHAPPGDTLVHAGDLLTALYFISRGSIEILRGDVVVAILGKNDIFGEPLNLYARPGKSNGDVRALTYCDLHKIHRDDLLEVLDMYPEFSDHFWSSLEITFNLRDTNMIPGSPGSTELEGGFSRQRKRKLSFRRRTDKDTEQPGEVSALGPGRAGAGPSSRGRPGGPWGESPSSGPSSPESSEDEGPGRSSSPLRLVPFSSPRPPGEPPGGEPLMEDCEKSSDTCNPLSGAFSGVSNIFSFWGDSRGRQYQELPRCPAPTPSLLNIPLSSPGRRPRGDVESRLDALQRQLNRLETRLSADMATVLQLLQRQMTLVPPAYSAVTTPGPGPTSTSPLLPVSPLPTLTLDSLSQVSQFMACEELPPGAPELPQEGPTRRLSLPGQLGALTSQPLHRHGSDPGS
row,Compound,"hERG current change (%, negative = inhibition) at 1uM [%]"
1,Cc1ccc(Nc2ncnc3c2cnn3C)c(C)c1,13.5
2,COc1cccc(-c2c(-c3cc(OC)cc(OC)c3)n(C)c3ccc(-c4ccc5[nH]ccc5c4)cc23)c1,11.8
3,COc1ccc([N+](=O)[O-])cc1-c1[nH]c(-c2ccc(C(=O)O)cc2)nc1-c1ccccc1,4.62
4,N#CCC(=O)Nn1c(=S)[nH]c2ccccc2c1=O,14.5
5,CCN(c1ccccc1)S(=O)(=O)c1ccc(OC)c(NC(=O)Cc2ccc(OC)c(OC)c2)c1,4.52
6,Cc1cccc(NC(=O)N(Cc2cc3cc(C)cc(C)c3[nH]c2=O)CC2COCCO2)c1 (stereo not drawn),1.25
7,COC(=O)c1ccc(N=C(c2ccccc2)c2c(O)n(C)c(=O)n(C)c2=O)cc1,11.6
8,Cc1nn(-c2ccccc2)c(Cl)c1C(=O)N1CCN(c2ncnc3c2cnn3-c2ccccc2)CC1,13.3
9,COCCSc1nnc(NC(=O)C2CC(=O)N(CCc3ccc(F)cc3)C2)s1 (stereo not drawn),15.9
10,CC(C)(C)NC(=O)Nc1ccc(F)c(Cl)c1,2.78
11,Cc1ccc(NC(=O)CCNC(=O)Cn2cnc3ccccc3c2=O)cc1F,11.5
12,CCOc1ccc(/C=C/C(O)=C2/C(=O)N(C)C3(C)CC2c2ccccc2O3)cc1OC (stereo not drawn),13.7
13,CC(C)Cn1c(N)c(C(=O)CSc2nnnn2C)c(=O)n(C)c1=O,11.7
14,Cc1ccc(CNS(=O)(=O)c2ccc3c(c2)NC(=O)CS3)cc1,8.53
15,Cc1n[nH]c(=O)c2c(NC(=O)CSc3nnc(-c4ccncc4)n3C)oc(C)c12,11.1
16,COc1cc2c(cc1OC)CN(c1ccc([N+](=O)[O-])cc1Cl)CC2,0.193
17,O=C(CCN1C(=O)C2C3C=CC(C3)C2C1=O)NCCc1ccccc1Cl (stereo not drawn),9.05
18,COc1cc2[nH]c(=S)n(N(C(C)=O)C(C)=O)c(=O)c2cc1OC,6.09
19,CC(NC(=O)c1ccccc1NC(=O)c1ccncc1)c1ccccc1 (stereo not drawn),9.1
20,COc1ccccc1C1=NOC(C)(c2sc(-c3ccc(Cl)cc3)nc2C)C1 (stereo not drawn),13.1
21,O=C(CCCSc1nc2ccccc2s1)NCc1ccc2c(c1)OCO2,-2.37
22,CSc1cc(-c2ccncc2)nc(-c2ccc(Cl)cc2)c1,7.29
23,OC[C@H]1O[C@@H](O[C@@H]2[C@@H](CO)O[C@@](O)(CO)[C@H]2O)[C@H](O)[C@@H](O)[C@H]1O,18.8
24,COC(=O)c1c(-c2ccc(F)cc2)csc1NC(=O)c1ccco1,18
25,O=C(NCCc1ccc(F)cc1)c1cccs1,11.2
26,COC(=O)c1sc(-c2ccccc2)cc1NC(C)=O,20.8
27,Cc1ccc(C)c(S(=O)(=O)N2CCCC2CNC(=O)C(=O)NCc2ccccc2)c1 (stereo not drawn),-15.7

row,Compound,"hERG current change (%, negative = inhibition) at 1uM [%]"
1,CC(=O)Nc1ccc(S(=O)(=O)N2CCN(c3ccccn3)CC2)cc1,5.71
2,O=C(CSc1nnc(-c2ccccc2)o1)N1CCOCC1,10
3,CCOC(=O)Cn1nc(C)c(NC(=O)COc2ccc(F)cc2F)c1C,7.89
4,CC1(C)C(=O)OC(C(=O)c2ccc(C(C)(C)C)cc2)C(C)(C)C1=O (stereo not drawn),10.7
5,CCS(=O)(=O)N1CCN(c2ccc([N+](=O)[O-])c(NCc3ccccc3)c2)CC1,1.14
6,CCOc1ccc(NC(=O)CN(C)C(=O)Cn2cnc3c2c(=O)n(C)c(=O)n3C)cc1OCC,2.45
7,O=C(c1ccc2nc(Cc3cccc(Cl)c3)oc2c1)N1CCC(O)CC1,14.3
8,CC(=O)Nc1ccc(SCC(=O)c2cc(C)n(-c3ccccc3)c2C)cc1,-5.05
9,Cc1ccccc1NC(=O)C(C)c1cccc(C(=O)c2ccccc2)c1 (stereo not drawn),4.76
10,CCN1CCN(c2ccc(S(=O)(=O)N3CCOCC3)cc2NC(=O)c2ccc(C)c(C)c2)CC1,2.55
11,CCCN(C(=O)CSCc1ccccc1C)c1c(N)n(Cc2ccccc2)c(=O)[nH]c1=O,7.56
12,COc1ccc2cc([C@H](C)C(=O)[O-])ccc2c1.[Na+],12.2
13,O=C(Nc1ccc(S(=O)(=O)N2CCCCC2)cc1)c1ccco1,-5.45
14,Cn1c(SCC(=O)Nc2nc3c(s2)CCCC3)nnc1-c1ccccc1,6.91
15,CCN1CCN(c2nc(N)c([N+](=O)[O-])c(Nc3cccc(C)c3)n2)CC1,-18.4
16,Cc1ccc(C(=O)N2CCC(C)CC2)cc1NC1=NC2CS(=O)(=O)CC2S1 (stereo not drawn),6.45
17,COc1ccc(C2/C=C\CN(Cc3ccncc3)CC(=O)N2Cc2ccc(F)cc2)cc1 (stereo not drawn),-4.62
18,CCOC(=O)CNC(=O)N1CCC(CCOc2ccccc2)(C(=O)OCC)CC1,10.6
19,COc1ccc(C(C)=O)cc1COC(=O)c1cnc(Cl)c(Cl)c1,6.91
20,Cc1ccc(CN2CC(C(=O)NC(c3nc4ccccc4[nH]3)C(C)C)CC2=O)cc1 (stereo not drawn),14.9
21,CCOC(=O)c1nn(-c2ccc(C)cc2)c(C)c1C(C)=O,10.6
22,Cc1ccc(C(CC(=O)NCc2ccco2)c2ccc(OC(C)C)cc2)cc1 (stereo not drawn),4.99
23,O=[N+]([O-])c1ccc(CSc2ncnc3ccccc23)cc1,-2.34
24,O=[N+]([O-])c1ccc(OCC(O)CN(C2CCCCC2)C2CCCCC2)cc1 (stereo not drawn),-80.4
25,CCCn1c(=O)c2[nH]c(C3CCCC3)nc2n(CCC)c1=O,13.9
26,COC(=O)CSc1nc(SCc2ccccc2Cl)nc2c1CCCC2,3.95
27,OCC1OC(Oc2cccc3ccccc23)C(O)C(O)C1O (stereo not drawn),13
